Test results from the RNAGym collection of RNA variant scans (doi:10.1093/nar/gkz1192).
Read counts are not given, so values of variants with three or more changes are uncertain.

B1: CPEB3 Ribozyme (parent)
chain: UAACAGGGGGCCACAGCAGAAGCGUUCACGUCGCAGCCCCUGUCAGAUUCUGGUGAAUCUGCGAAUUCUGCUGUAUAUCUC

Variants of: B1
Assay: self-cleavage, relative activity (ratio to wild type); higher = more cleavage; in vitro, sequencing
Summary of the method: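 CPEB3 self-cleaving ribozyme mutant libraries were made by rounds of error-prone PCR, barcoded, and transcribed in vitro with T7 RNA polymerase for 5 hours at 37°C. Cleavage occurred during transcription and a 15 min DNase I step before EDTA stop. RNAs were reverse transcribed with template switching and Illumina-sequenced, with DNA sequencing mapping barcodes to variants. Relative activity is the variant's cleaved/total read fraction divided by wild type's (minimum 5 reads), averaged across three batches.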

Variant | self-cleavage
UAACAGGGGGCCACGGCAGAAGCGUUCAUGUCGCACCCCCUGUCAGAUUCUGGUGAAUCCGCGAAUUCUGCCGUAUACCUC [A15G C29U G36C U60C U72C U78C] | 0.06
UAACAGGGGGCCACGGCAGAAGCGUUCAUGUCGCAGCCCCAGUCAGAUUCUGGUGAAUCUGCGAAUUCUGCUGUGUAUCUC [A15G C29U U41A A75G] | 0.45
UAACAGGGGGCCACGGCAGAAGCGUUCAUGUCGCAGCCCCCGUCAGAUUCUGGUGAAUCUGCGAAUUCUGCUGUAUAUCUC [A15G C29U U41C] | 0.18
UAACAGGGGGCCACGGCAGAAGCGUUCAUGUCGCAGCCCCCGUCAGAUUCUGGUGAAUCUGCGUAUUCUGCUGUAUAUCUC [A15G C29U U41C A64U] | 0.11
UAACAGGGGGCCACGGCAGAAGCGUUCAUGUCGCAGCCCCUGUCAGAUCCUGGUGAAUCUGCGAAUUCCGCUGCAUAUUUC [A15G C29U U49C U69C U74C C79U] | 0.15
UAACAGGGGGCCACGGCAGAAGCGUUCAUGUCGCAGCCCCUGUCAGAUUCUGGUGAACCUGCGAAUUCUGCUGUAUAUCUC [A15G C29U U58C] | 0.15
UAACAGGGGGCCACGGCAGAAGCGUUCACGUGGCAGCCCCCGUCAGGUUCUGGUGAAUCUGCGAAUUCUGCUGCAUAUCCC [A15G C32G U41C A47G U74C U80C] | 0.1
UAACAGGGGGCCACGGCAGAAGCGUUCACGUUGCAGCCCCUGUCAGGUUCUGGUGAAUCAGCGAAUUCUGCUGUACAUCUC [A15G C32U A47G U60A U76C] | 0.13
UAACAGGGGGCCACGGCAGAAGCGUUCACGUUGCAGCCCCUGUCAGAUUCUGGUGCAUCUGCGAAAUCUGCUGUAUAUCUC [A15G C32U A56C U66A] | 0.08
UAACAGGGGGCCACGGCAGAAGCGUUCACGUCGGAGCCCCUGUCAGAUUCUGGUGAAUCUGCGGAUUCCGAUGCAUAUCUC [A15G C34G A64G U69C C71A U74C] | 0.1
UAACAGGGGGCCACGGCAGAAGCGUUCACGUCGGAGCCCCUGCCAGACUCUGGAGAAUCUGCGAAUUCUGCUGUAUAGCUC [A15G C34G U43C U48C U54A U78G] | 0.08
UAACAGGGGGCCACGGCAGAAGCGUUCACGUCGUAGCCCCUGUCGGAUUCUGGUGGAUCUGCGAAUUCUGCUGCAUAUCAC [A15G C34U A45G A56G U74C U80A] | 0.3
UAACAGGGGGCCACGGCAGAAGCGUUCACGUCGUAGCCCCUGUCAGAUUCUGGUGAAUCUGCGAAUUCUGCUGUUUAUCUC [A15G C34U A75U] | 0.1
UAACAGGGGGCCACGGCAGAAGCGUUCACGUCGUAGCCCCUAUCAGAUCCUGGUGAAUCUGCGAAUUCUGUUGUAUAUUUC [A15G C34U G42A U49C C71U C79U] | 0.22
UAACAGGGGGCCACGGCAGAAGCGUUCACGUCGUAGCCCCUGUCAGAUUCUGGUGAAUCUGCGAAAUCUGCUGUAUAUCUC [A15G C34U U66A] | 0.18
UAACAGGGGGCCACGGCAGAAGCGUUCACGUCGCAGACCCUGUCAGAUUCUGGUGACUCUGCGAAUUCUGCUGCAUAUCUC [A15G C37A A57C U74C] | 0.06
UAACAGGGGGCCACGGCAGAAGCGUUCACGUCGCAGACUCUGUCAGAUUCUGGUGAAUCAGCGAAUUCGGCUGUAUAUCUC [A15G C37A C39U U60A U69G] | 0.1

Variant | self-cleavage
UAACAGGGGGCCACGGCAGAAGCGUUCACGUCGCAGGCCCUGUCGGAUUCUGGUGGAUCUGCGAAUUCUGCUGUAUAUCUC [A15G C37G A45G A56G] | 0.39
UAACAGGGGGCCACGGCAGAAGCGUUCACGUCGCAGUCCCUGUCAGAUUCUGGUGAAUCUGCGAGUUCUGCUGUAUAUCUC [A15G C37U A65G] | 0.19
UAACAGGGGGCCACGGCAGAAGCGUUCACGUCGCAGUCCCUGUCAGAUUCCGGAGAAUCUGCGGAUUCUGCUGUAUAUCUC [A15G C37U U51C U54A A64G] | 0.21
UAACAGGGGGCCACGGCAGAAGCGUUCACGUCGCAGUCCCUGUCAGAUUCUGGUGAAACUGCGAGUUCUGCUGUAUAUCUC [A15G C37U U58A A65G] | 0.2
UAACAGGGGGCCACGGCAGAAGCGUUCACGUCGCAGCACCUGUCAGAUUCUGGUGAAUCUGCGUAUUCUGCUGUAUAUCCC [A15G C38A A64U U80C] | 0.21
UAACAGGGGGCCACGGCAGAAGCGUUCACGUCGCAGCACCUGUCAGAUUCUGGUGAAUCUGCGAAUUCUGCUGAAUAUCUC [A15G C38A U74A] | 0.38
UAACAGGGGGCCACGGCAGAAGCGUUCACGUCGCAGCGCCCGCCAGAUUCUGGUGAAUCUGCGAAUUCUGCUGUAUACCUC [A15G C38G U41C U43C U78C] | 0.23
UAACAGGGGGCCACGGCAGAAGCGUUCACGUCGCAGCGCCUGACAGAUUCUGGUGAAUCUGCGAGUUCUGCUGUAUAUCUC [A15G C38G U43A A65G] | 0.19
UAACAGGGGGCCACGGCAGAAGCGUUCACGUCGCAGCUCCUGUCAGAUUCCGGUGAAUCUGCGAAUUCUGCUGUAUAUCUC [A15G C38U U51C] | 0.68
UAACAGGGGGCCACGGCAGAAGCGUUCACGUCGCAGCCACUGUCGGAUUCUGGUGAAUCUGCGAAUUCUGCUGUAUAUCUC [A15G C39A A45G] | 0.07
UAACAGGGGGCCACGGCAGAAGCGUUCACGUCGCAGCCACUGUCAGCUCCUGGUGAAUCUGCGAAUUCUGCUGUAUAUCUC [A15G C39A A47C U49C] | 0.19
UAACAGGGGGCCACGGCAGAAGCGUUCACGUCGCAGCCACGGUCAGAUUCUGGUGAAUCUGCGAAUUCUGCUGAAUAUCUC [A15G C39A U41G U74A] | 0.49
UAACAGGGGGCCACGGCAGAAGCGUUCACGUCGCAGCCGCUGCCAGAUUCUGGUGAAACUGCGAAUUCUGCUGUAUAUCCC [A15G C39G U43C U58A U80C] | 0.18
UAACAGGGGGCCACGGCAGAAGCGUUCACGUCGCAGCCUCUGUCAGUUUCUGGUGAAUCUGCGAAUUCUGCUGUAUAUCUC [A15G C39U A47U] | 0.39
UAACAGGGGGCCACGGCAGAAGCGUUCACGUCGCAGCCUCCGUCAGAUUCUGGGGAAUCUGCGAAUUCAGCUGUAUAUCUC [A15G C39U U41C U54G U69A] | 0.45
UAACAGGGGGCCACGGCAGAAGCGUUCACGUCGCAGCCCACGUCAGAUUCUGGUGAAUCGGCGAAUACUGCUGAAUAUCAC [A15G C40A U41C U60G U67A U74A U80A] | 0.03
UAACAGGGGGCCACGGCAGAAGCGUUCACGUCGCAGCCCAUGUCAGAAUCUGGUGAAUCUGCGAAUUCCGCUGUAUGUCUC [A15G C40A U48A U69C A77G] | 0.1
